# Publication PMC4336329 (PLoS ONE, 2015)
# Hit rate of the full screen: of about 310,000 compounds, about 2,200 (0.71%) showed an effect of 50% or more. The effect is printed as a negative number. This is one part of the list.
# Target: human ether-à-go-go-related gene (hERG) potassium channel (human, UniProt Q12809)
# Experiment: primary screen, population patch clamp on CHO cells stably expressing hERG
# Chain of human ether-à-go-go-related gene (hERG) potassium channel (Q12809 whole entry, looked up): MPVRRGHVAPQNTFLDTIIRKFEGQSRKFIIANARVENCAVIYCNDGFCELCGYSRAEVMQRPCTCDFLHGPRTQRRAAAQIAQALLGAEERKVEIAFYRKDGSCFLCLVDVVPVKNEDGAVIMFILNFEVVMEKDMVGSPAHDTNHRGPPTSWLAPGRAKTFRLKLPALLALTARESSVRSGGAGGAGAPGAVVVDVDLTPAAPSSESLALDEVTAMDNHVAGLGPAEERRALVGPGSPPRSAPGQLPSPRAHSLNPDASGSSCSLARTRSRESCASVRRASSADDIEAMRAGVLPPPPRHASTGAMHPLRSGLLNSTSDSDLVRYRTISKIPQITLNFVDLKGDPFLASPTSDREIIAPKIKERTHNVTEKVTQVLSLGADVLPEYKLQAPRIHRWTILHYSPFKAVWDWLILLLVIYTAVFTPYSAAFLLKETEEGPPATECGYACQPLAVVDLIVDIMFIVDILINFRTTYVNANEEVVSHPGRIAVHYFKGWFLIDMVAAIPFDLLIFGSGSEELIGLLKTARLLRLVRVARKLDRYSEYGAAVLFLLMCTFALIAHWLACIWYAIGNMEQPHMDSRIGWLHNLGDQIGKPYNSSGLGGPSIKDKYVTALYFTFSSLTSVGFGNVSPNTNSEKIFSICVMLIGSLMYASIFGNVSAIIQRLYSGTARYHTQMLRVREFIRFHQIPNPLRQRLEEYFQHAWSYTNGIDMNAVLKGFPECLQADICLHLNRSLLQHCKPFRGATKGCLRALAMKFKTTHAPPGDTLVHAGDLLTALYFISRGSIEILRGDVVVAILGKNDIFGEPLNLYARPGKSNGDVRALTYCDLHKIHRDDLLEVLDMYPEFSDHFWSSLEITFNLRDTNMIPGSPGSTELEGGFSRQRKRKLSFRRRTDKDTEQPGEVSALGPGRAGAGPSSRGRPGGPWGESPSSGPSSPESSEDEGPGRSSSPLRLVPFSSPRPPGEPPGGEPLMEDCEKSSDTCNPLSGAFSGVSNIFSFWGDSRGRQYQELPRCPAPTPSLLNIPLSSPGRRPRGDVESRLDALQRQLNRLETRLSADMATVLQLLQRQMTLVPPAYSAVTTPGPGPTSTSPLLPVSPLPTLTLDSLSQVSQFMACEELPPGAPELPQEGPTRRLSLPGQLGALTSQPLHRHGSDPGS
row,Compound,"hERG current change (%, negative = inhibition) at 1uM"
1,CC(C)Cn1c(SCC(=O)N2CCN(C(=O)c3ccco3)CC2)nc2ccccc2c1=O,-42.9%
2,CCc1ccccc1NC(=O)Nc1cccn(Cc2ccccc2F)c1=O,6.57%
3,COc1ccc2c(c1)C(c1ccc(Cl)cc1)NC(=O)C2 (centres unmarked),5.97%
4,N#C/C(Cn1c[n+](NC(=O)Nc2ccccc2)cn1)=N/O.[Cl-],14.5%
5,O=C(Cn1ncc2c([nH]c3ccccc32)c1=O)NCC1CCN(Cc2ccc(F)cc2)CC1,-5.39%
6,O=C(O)c1[nH]c2ccccc2c1C(c1ccccc1)c1c(C(=O)O)[nH]c2ccccc12,14.3%
7,Cc1cccc(CCNCc2cc3ccc(C)cc3[nH]c2=O)c1,-54.6%
8,COc1ccc(/C=N\NC(=O)c2cccc(Br)c2)c(OC)c1,9.82%
9,COc1ccc2[nH]c(=O)c(CN(C(=O)c3ccccn3)c3ccccc3)cc2c1,16.6%
10,CC1(C)Cc2c(c(N3CCOCC3)nc3snc(N)c23)CO1,7.63%
11,CC(=O)Nc1cccc(C(=O)NC(C)c2ccc(-n3ccnc3)cc2)c1 (centres unmarked),8.8%
12,Cc1occc1-c1nnc(SCC(=O)N2CCCCC2C)o1 (centres unmarked),0.883%
13,CCOC(=O)c1c(C)nc2sc3c(=O)n(-c4ccc(C(C)=O)cc4)nnc3c2c1-c1ccc(OC)cc1,11.7%
14,O=C(CSc1n[nH]c(-c2cccs2)n1)N1CCCc2ccccc21,-2.14%
15,CCn1c(C)c(C(C)=O)c(N2CCCC2)nc1=S,-3.85%
16,C=CCOC(=O)C1=C(C)NC(SCC(=O)Nc2nccs2)=C(C#N)C1c1ccc(Cl)cc1 (centres unmarked),10.7%
17,Cc1ccc(C(=O)N/C(=C/c2ccccc2F)C(=O)NCCCn2ccnc2)cc1,-22.5%
18,COc1cc(/C=N/NC(=O)C2(O)c3ccccc3-c3ccccc32)ccc1O,7.54%
19,CC(=O)N1c2ccccc2N(Cc2ccc(C)cc2C)C(=O)C1(C)C,0.978%
20,COc1ccc(CC(=O)NNC(=O)c2cccnc2)cc1OC,13.2%
21,CC1(C)C(=O)Nc2ccccc2N1C(=O)COC(=O)CSc1ccc(F)cc1,10.5%
22,NC1=NC(=O)/C(=C\c2cccnc2)S1,8.22%
23,CC1(C)CC(=O)C2=C(C1)Nc1cc3c(cc1C2c1ccc2c(c1)OCO2)OCO3 (centres unmarked),0.897%

row,Compound,"hERG current change (%, negative = inhibition) at 1uM"
1,O=C(O)Cc1ccc(C(=O)c2ccccc2F)s1,8.68%
2,O=C(Nc1ccccc1C(=O)N1CCOCC1)C1COc2ccccc2O1 (centres unmarked),4.67%
3,CSc1nc2nc(-c3cccs3)cc(C(F)(F)F)c2c(=O)[nH]1,18.3%
4,Cc1nc(SCC(=O)NCCc2ccccc2)c2oc3ccccc3c2n1,-0.61%
5,COc1ccc(C2C(C(=O)Nc3cc(C)on3)c3ccccc3C(=O)N2C)cc1 (centres unmarked),8.27%
6,COc1cc(N2Cc3ccccc3C2)ccc1C=O,12.4%
7,O[C@H]1c2ccccc2[C@H](Cc2cncs2)[C@@H]1Br,11.9%
8,Cn1cccc1/C=C1\SC(=S)N(Nc2ccccc2)C1=O,11.5%
9,COc1ccc(S(=O)(=O)CCC(=O)O)cc1,18.3%
10,CCCC(=O)Nc1cc(C)c(NC(=O)Cc2ccccc2)cn1,3.08%
11,COc1cc(/C=N/NC(=O)NC23CC4CC(CC(C4)C2)C3)ccc1O,-7.39%
12,S=c1[nH]nc(-c2ccc3ncccc3c2)n1-c1ccc2c(c1)OCCO2,7.14%
13,Cc1nc2cc(NC(=O)NCCC3=CCCCC3)ccc2o1,13.4%
14,CCc1nnc(NC(=O)CSCc2cc(=O)n3cc(C)sc3n2)s1,2.32%
15,Cc1cc(Cl)ccc1N(CC(=O)NCc1ccccc1)S(C)(=O)=O,9.8%
16,O=[N+]([O-])c1cc(/C=N/O)ccc1SCc1ccccc1Cl,-5.27%
17,O=C(c1cccc(C(F)(F)F)c1)C1CCCN(C(=O)CCCN2CCCC2=O)C1 (centres unmarked),6.97%
18,COc1cc(O)c(CCC(=O)c2ccc(OC)c(OC)c2)c(OC)c1,10.8%
19,Cc1ccc(CCNC(=O)c2ccc(CS(=O)(=O)c3ccccc3C)o2)cc1,21.5%
20,S=c1[nH]nc(-c2cc(-c3ccccc3)n[nH]2)n1/N=C/c1ccc(Br)s1,14.4%
21,C/C=C/C(=O)OCC(=O)NC(=O)NC(C)C,3.02%
22,CCOC(=O)c1ccc(NC(=S)Nc2ccccc2N)cc1,9.23%
23,O=C(c1ccoc1)N1CCC2(CC1)Oc1ccc(F)cc1C(=O)C21CC(c2ccc(Cl)cc2)=NO1 (centres unmarked),18%

row,Compound,"hERG current change (%, negative = inhibition) at 1uM"
1,O=C(Nn1c(Cc2ccccc2)nc2ccccc2c1=O)c1c(O)c2cccc3c2n(c1=O)CCC3,16%
2,CCOc1c(Br)ccc2c1sc1nc[nH]c(=O)c12,7.41%
3,CC(=O)NC(CCS(C)(=O)=O)C(=O)Nc1ccccc1C (centres unmarked),11.1%
4,Cc1ccc(CNC(=O)CCSCc2ccc(C)cc2)cc1,8.45%
5,CS(=O)(=O)N(Cc1ccccc1)c1ccc(C(=O)Nc2ccccc2C(=O)O)cc1,14.4%
6,Cc1occc1-c1nnc(SCC(=O)NC(C)(C)C)n1C(C)c1ccccc1 (centres unmarked),2.41%
7,COC(=O)CCC(=O)Nc1c(C)n(C)n(-c2ccccc2)c1=O,7.9%
8,O=c1c2ccccc2nc(N/N=C/c2c(O)ccc3ccccc23)n1O,12.6%
9,CCN(C(=O)/C=C/c1ccc(OC)cc1)C1CCS(=O)(=O)C1 (centres unmarked),-3.05%
10,O=C(CCN1C(=O)c2ccccc2C1=O)N1CCOCC1,8.12%
11,Cc1ccc(-c2cc(-c3ccc(C)cc3O)[nH]n2)cc1,9.69%
12,COc1cc(CNCc2ccccn2)ccc1OCC(N)=O.Cl,4.11%
13,CCc1ccccc1NC(=O)C1CCCN(c2ncnc3onc(-c4ccc(F)cc4)c23)C1 (centres unmarked),19.3%
14,COc1cccc(CC(=O)Nc2nc(-c3ccc(F)c(F)c3)cs2)c1,6.25%
15,N#Cc1c(-c2ccc3c(c2)OCO3)cc[nH]c1=O,9.68%
16,Cc1nc2cc(NC(=O)COc3ccccc3C#N)ccc2n1-c1ccccc1,2.55%
17,CCOC(=O)C1=C(N)Oc2cc(C)oc(=O)c2C12C(=O)N1c3c(cc(OC)cc32)C(C)=CC1(C)C (centres unmarked),18.3%
18,Cc1nnc(SCCCCSc2nnc(C)c(=O)[nH]2)[nH]c1=O,8.72%
19,C[n+]1ccc(-c2ccccc2)c2ccccc21.[O-][Cl+3]([O-])([O-])[O-],16.8%
20,COc1ccc(NC(=O)CN2CC(c3ccccc3)CC2=O)cc1OC (centres unmarked),12.3%
21,CCCCC(=O)Nc1ccc(NC(=O)c2cccnc2)cn1,4.2%
22,CCS(=O)(=O)N1CCN(c2ccccc2)CC1,7.1%
23,Cc1cccnc1NC(=O)c1csnn1,8.96%

row,Compound,"hERG current change (%, negative = inhibition) at 1uM"
1,O=C(c1cc(-c2ccccn2)nc2c(Cl)cccc12)N1CCN(C(=O)C2CCCO2)CC1 (centres unmarked),-3.08%
2,Cc1cc(OCCOCCNCc2ccccc2)ccc1C(C)C.O=C(O)C(=O)O,18.8%
3,COc1nc(OC)nc(N2CCC(C(=O)Nc3cccc4ccccc34)CC2)n1,4.24%
4,COc1ccccc1CC(=O)NCCc1c[nH]c2ccccc12,11.7%
5,CC1=C(C(=O)OCc2ccccc2)N2C(=O)[C@@H](NC(=O)COc3ccccc3)[C@H]2SC1,-4.75%
6,NC1=NC(c2ccccc2)=NC1(NC(=O)c1ccccc1)C(Cl)Cl (centres unmarked),15.1%
7,CCCCn1cnc2c([nH]c3cc(OC)ccc32)c1=O,6.65%
8,CCOC(=O)Cn1c(=O)oc2cc(S(=O)(=O)N(C)Cc3ccco3)ccc21,13.3%
9,O=c1cc(CN2CCN(S(=O)(=O)c3ccccc3)CC2)nc2ccc(Cl)cn12,-3.74%
10,Cc1ccc(S(=O)(=O)N2CCN(C(=O)C3CCCCC3)CC2)cc1,1.49%
11,O=C1CC(N2CCCCCC2)C(=O)N1c1ccc2c(c1)OCO2 (centres unmarked),0.811%
12,c1ccc(-c2nnc(SCC3CCCO3)nc2-c2ccccc2)cc1 (centres unmarked),2.16%
13,Cc1ccc(NC(=O)c2ccc(OC(=O)COc3ccc(Cl)cc3C)cc2)cc1,5.53%
14,O=C(NCc1ccc(Cl)cc1)NCc1ccc(Cl)cc1,17.6%
15,Cc1ccc(C)c(NS(=O)(=O)c2cc(C(=O)NCc3ccccn3)ccc2Cl)c1,-2.78%
16,Cc1nc(CC(=O)c2ccc(O)cc2O)cs1,13%
17,COC(=O)CSc1nnc(CSc2nc(C)cc(C)n2)n1Cc1ccco1,11.5%
18,Cc1csc(NC(=O)c2ccccc2C(=O)O)n1,5.16%
19,O=C(NCc1ccncc1)c1cccc(F)c1,5.07%
20,Cc1nc(SCC(=O)NCC2CCCO2)c2c3c(sc2n1)CCCC3 (centres unmarked),8.09%
